Reference: the supplement of paper PMC10681739
± gives the standard deviation of the averaged measurements. Whole data set: some 4,000 sequences, median “arbitrary fluorescence units” near 830, cut for the highest 2% near 6,500. The list lacks most of the strong results.

The sequences below were run against RUNX1 (UniProt Q01196) (assay: RUNX1 binding intensity (PBM fluorescence), RUNX1 alone (arbitrary fluorescence units); higher = stronger binding). Settings: RUNX1 concentration 2 nM; ETS1 concentration 0 nM.
Chain of UniProt Q01196 (Q01196 whole entry): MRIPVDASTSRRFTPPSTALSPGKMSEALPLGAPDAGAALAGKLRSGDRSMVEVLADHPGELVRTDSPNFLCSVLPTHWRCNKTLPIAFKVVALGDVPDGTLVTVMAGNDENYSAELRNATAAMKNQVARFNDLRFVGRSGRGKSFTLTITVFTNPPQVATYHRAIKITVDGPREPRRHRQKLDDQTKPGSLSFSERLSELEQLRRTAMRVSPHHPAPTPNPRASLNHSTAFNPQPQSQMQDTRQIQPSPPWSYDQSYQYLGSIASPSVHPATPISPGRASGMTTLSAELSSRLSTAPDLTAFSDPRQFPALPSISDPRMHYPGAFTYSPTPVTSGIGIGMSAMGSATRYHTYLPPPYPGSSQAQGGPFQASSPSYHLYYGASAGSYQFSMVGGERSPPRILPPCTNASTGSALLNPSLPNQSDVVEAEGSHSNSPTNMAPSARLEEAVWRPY
Method: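 gcPBM on 36-bp genomic-derived probes (partner site mutated) containing one RUNX1 site and no ETS1 site. Recombinant human RUNX1 (2 nM) was incubated alone or with ETS1 (25 nM) and detected by anti-RUNX1 antibody fluorescence. Values are medians over 4 replicate spots (not normalised). The probes sit in constant array flanks that are not printed.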
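Note: Full-length recombinant human RUNX1 bound to double-stranded DNA microarray spots, detected with an Alexa488-labelled secondary antibody after the anti-RUNX1 primary, read as scanned spot fluorescence.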

Sequence	RUNX1 binding intensity
TTGTGGTTTGTCAGCCCCAGACAGGCACGAAACGCT	844
CCAACACAGCAAATAATTTGAAACCACAATCAGAAA	1420
GCGCAAAGCCGTAAGGAGGGGTTTGCGGCTGGGGAG	748
ACACAGAAAGGACGCACGCTCCCGCCCCAACCACAT	955
TGTCGGGCTGCGGGGGCGGGGAGGTGGCGGCTGAAG	967
AAGGAACTGTGGTAAGAGAAGGCAGTGCTATCCACT	766
TGGGACTGTGGCCACCACCACCTCCTCTCTGCTCTG	884
CTACATGTCCCACAGGCGCCCGGGCGGTTTTCGAAC	828
CTCCCGCCACCGCGCGCCCGCGCTCCGAAAAGGCGG	831
CCAGCCGTAAGCCCCGCCCCCTAGAGGCACCGCGGA	882
TGATGTGGTTTTGAAAGTGGAAGAGGGCAGGCAGTG	1990
GAGCGCCCACCTCCTGTTTACCACCCAGCCTCTTCG	1030
ACGGTTTGTGGTTCCTCCTTAGGAGGCCAGATATGG	1290
TTACTGCCTGAGGGTGCACAGGCTGTGGTCGTCTAT	694
CCGGGACCGCGGCTTGGGCTCACGGCCACTGCCGAC	703
CCCAGCCGCATGTGCAGAGTGGGGACGAAGAGGAGG	749
TTCCAGCGGAGGTTGTCTCTTCGCCGCCGCCGCAGC	740
CTAAACCTGAAGCCGCCCCTCTGACCGCTCTAAAAC	979
GCCGCGGTGGCTGCTATTTCTGCCGCTTTCTGTTCC	804
GTTGCCTTTCTGCGGTGGAGGAGGAGGTGTTGGATT	1400
TGCGTAGCCGCAGCCAACGCGCCTTTCGGGTAGCCA	842
TGATAGTGGGTTTGGGGTGATGCAAACAGAAAGAAA	841
GGCCGGCTTACGGGGCGGGTGGAAAGGAGCCACAAG	727
CGCCTCATTGCCTGTGCAACTGCGGTAAAAATAGGA	1420
TTAACCACTGTTCTCTAAATACTGTACGTCCTTTAT	1100
ACTAGAAGCGAAAGTAGTTGTGGGCGCCTTTGCAAC	705
CCCGCCTCCGCGTTTTACTCGGTGCCCGCAGCGCCG	991

Sequence	RUNX1 binding intensity
CAGGGGGCCCCACATGCCGCTCTTGCTGCCCAGGTC	798
CTTGGCTTATTGTGGGAGCCACTTGCCTGGCTTTCA	742
GCACTACATTGCCCAGCTTTCCTCGCGGTAAAGAGA	883
AGCTGCGGTGGGCTCCACCCAGTTTGAACTTGCTGG	1100
AGTGTCCGCCGCCTCCTGGTTGCGGGTCAGCGCCCA	753
CTAACTGTGGGTGTTGTTACACACGATGATTCTTAG	733
CAGGCAGGGTGTTGACTCAGCTGCCAAGTGGTTTTG	779
TCTCTATGGTTGCCGTTGGGTGTGTGGTTTTTTTGT	930
CCCACTGCCTGTCCCTGCATGCTGTGGGGCAGGCAG	713
ACCCTACCTCCGTTGCTGTGTTGCGGAGGTGACCTA	790
CTCTACCGCAGGCTGGCTAATCTTCGGCAACAAACA	1340
AGGCCTGGCCCCAGGACGTGGGCGGTTGCCGGGGCG	681
GGCCAAGGAGGCGGCCCCCTAAAACCGCTCCAGGGA	746 ± 71
TAGAACGTCCTCAGACCACCGCCGCCGCAGTCTGCA	818
CCCTTTTCCTTACGGCCTGTGCGGCTTATAAGATCT	1220
GGGGCTCCGCAGGCAGTAGGGCTCCCACAACTTTGC	696
TTGGCCTCGCCGGGACCCCTTGCACCGCGGACACAG	776
GGTCACTGCGGCCCAGAGGCCCGCTCTTCAGCTGAG	756
CCTCCCGACCTGAAGCCCCGCCACAGAGCGGGTTGT	988
AGAGTGTGGCCGCAGAACTCACCTCCTTGTTTACAT	925
ATAGACGCGTGGTTTTGTTTTTAAACATGCTGAGCA	774
GAGTGGCTGTGGTCTCGGGCGGCTGGGGAGAAGAGA	863
TCTGGGAGATGGAGTTCACAGCGCTGCGGGGCCGGA	674
AATGCCGAATATTGGTTCTGGTAAGCCACAAAAAAG	871
ACCCCACCTACCGCCACCTCATTCTGAGTCTGAGAG	1300
GGGGTGCTGGGAACTGGAGCGAGAGGTGGTTTCCAG	739
TCCGAAAGTGGCACTGATGGGCGCCTGCGGCGGGGG	720

Sequence	RUNX1 binding intensity
CTGGTAGAAAAGGCAGCAGGTTGTGGTGAGCATTTA	777
CCCTTTTTCCCCGCAAACAGCTTGCTCTGCTAAGAA	1480
CACTACCACAAATTATGCAGTGGAATCTCCTACATT	1040 ± 100
AGGTGTACTTTACGGGTGCAGACCGCGAATGGATCG	722
CTCTCTCCACCACAGTCACTTATCGCTTGCTGGAGG	1070
ATAATAACCACAAGAGATCTGATCTCCGTTGCTGGT	3470
CCTGGGACACCGCGAAAGTCGGGAGATGGTGCGTGT	935
CTCCTGCCCACAGAAGCTCACTGTTTACTGTCTAGC	965
GCCACACCCCCTTCATGTTGTGTGTGGGGATTCATG	746
GGAGCGACGGGAGCACCTGAAGCGGTCTTTCCCCGA	688
CGGGAGGGGCAGGGAGCGGACTGCGGTGGGGAAGGG	970
AAGTGGGGTGAAGGCAGCTGTACACCGCGGAGTCAC	748
TTAACTCCACAGAAGAATAAACCACCACCGCTCACC	1060
TTCTGCGCCGCAGCCTCAGTCCCTTCTCAGGCTGGG	831
GCTTTTGCGCTCCCAGAGTGCCCCGCCCACAGTTCA	928
GCCGCCGCAGTCGCGGCCGGTCCCCTGGAACCGTCT	870
GTAACCCAGGCCACAAGTGGGGTGAAGGAGGCTGTA	913
CTGTGGTAGGGCAGCTCCTCAGAAGCCGTAAATCTG	714
GCGAAGTGTGTGGGCAACGCGGCCCGATCCTGGAGT	1170
ACATGAAACTAAAATAAGAACAGAAAACCAAGACAG	795
CTCGGGGACCACACCCTGCGCGCCGGGAGCAAGGGC	777
CCAGAATGCATGAAGTGCTGTGGTTTGACTTTGTTT	800
ACTACATGTCCCAGGAGGCTTCGCGGTGAGCCTCCG	739
GAGCCCGCGCATGTCAGGTGTGCCCACATCTAAACA	750
GGCGGGGCCTCCGTGTCCTTGCGGTGCTGGGCAGCA	688
ATACATACAGCATGACATTTGTCCTGTGGGCACCAG	698
